Reference: PubChem BioAssay (Tox21)
Calls of active or inactive are those of the source. Entries that show only a call come without a potency. Unless noted, calls follow the shape of the dose curve; as a rule, active = well fitted curve in the direction sought with a large enough effect in the repeat runs; inconclusive = weak or mixed curves; inactive = no such curve, though single readings can be large; an effect the other way counts as inactive or inconclusive.

Legend:
[1] = qHTS assay for small molecule agonists of the p53 signaling pathway - cell viability (AID 651633; calls by dose curve; also: nearly all actives have a fitted effect of over 30% in size; also: potency is read from the fitted curve at half-maximal effect)
Method in brief: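 p53RE-bla cells were treated with compound for 16 hours at 37 C. Cytotoxicity was then measured as CellTiter-Glo luminescence after 30 min at room temperature.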

[2] = qHTS assay for small molecules that induce genotoxicity in human embryonic kidney cells expressing luciferase-tagged ATAD5 - cell viability (AID 651634; calls by dose curve; also: potency is read from the fitted curve at half-maximal effect; nearly all actives have a fitted effect of over 25% in size)
Method in brief: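 Cytotoxicity counterscreen in HEK293T cells bearing an ATAD5-luciferase reporter: live-cell protease activity measured by CellTiter-Fluor fluorescence after 15.5 hr compound exposure.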

[3] = qHTS assay for small molecule disruptors of the mitochondrial membrane potential (AID 720635); settings: HepG2 mitochondrial membrane potential, Mito-MPS dye ratio; ratio activity, negative = MMP loss: at 83.2 µM (top of the series) unless noted; also: potency is read from the fitted curve at half-maximal effect
Method in brief: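 HepG2 cells exposed to compound 1 hr at 37C, then Mito-MPS dye 30 min. Ratio read of aggregate (540/590 nm) versus monomer (490/535 nm) fluorescence.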

[4] = biological target: Glucocorticoid receptor (Homo sapiens) (UniProt P04150); assay: qHTS assay to identify small molecule antagonists of the glucocorticoid receptor (GR) signaling pathway (AID 720692; active = well fitted inhibition curve with a large enough effect in the signal ratio in the repeat runs, not every such curve was filed as active; inconclusive = weak or mixed curves, or effect the other way; inactive = no such curve, though single readings can be large or run the other way; the % refers to the signal ratio; also: potency is read from the fitted curve at half-maximal effect); settings: GR-bla HeLa, beta-lactamase FRET ratio, dexamethasone-stimulated, 18 h; activity change, negative = inhibition: at 58.5 µM (top of the series) unless noted
Method in brief: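 Cells plated, rested 4 h at 37 C/5% CO2; compounds in DMSO pin-transferred; dexamethasone added to 5 nM final; 18 h at 37 C; B/G FRET substrate added, 2 h room temperature; fluorescence measured.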

[5] = qHTS assay for identifying genotoxic compounds that show differential cytotoxicity against isogenic chicken DT40 cell lines with known DNA damage response pathways - wild type cell line (AID 743012); settings: DT40 wild type chicken cells viability, CellTiter-Glo, 40 h; activity change, negative = cytotoxicity: at 68.4 µM (top of the series) unless noted; also: potency is read from the fitted curve at half-maximal effect; nearly all actives have a fitted effect of over 60% in size
Method in brief: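 Cells (DT40 wild type, 300/well) are treated with DMSO-dissolved compounds after a ~0.5 h pre-incubation and kept 40 h at 37 C/5% CO2. Viability is then measured by CellTiter-Glo luminescence following 30 min at room temperature.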

[6] = qHTS assay to identify small molecule antagonists of the androgen receptor (AR) signaling pathway using the MDA cell line - cell viability counter screen (AID 743041; also: nearly all actives have a fitted effect of over 45% in size; also: potency is read from the fitted curve at half-maximal effect); settings: MDA-kb2 viability, CellTiter-Fluor, 16 h, cells co-treated with R1881 androgen agonist; viability change, negative = cytotoxic: at 70.3 µM (top of the series)
Method in brief: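 Same-well cytotoxicity was assessed by CellTiter-Fluor in MDA-kb2 AR-luc cells after 16 h of compound treatment under R1881 agonism.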

[7] = biological target: Androgen receptor (Homo sapiens) (UniProt P10275); assay: qHTS assay to identify small molecule antagonists of the androgen receptor (AR) signaling pathway using the MDA cell line (AID 743042; also: potency is read from the fitted curve at half-maximal effect; nearly all actives have a fitted effect of over 55% in size)
Method in brief: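 MDA-kb2 breast carcinoma cells carrying MMTV-luciferase (AR/GR responsive) were co-treated with compounds and the agonist R1881 for 16 h at 37C. Inhibition read as ONE-Glo luminescence; CellTiter-Fluor fluorescence measured in parallel for cytotoxicity.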

[8] = qHTS assay to identify small molecule antagonists of the thyroid receptor (TR) signaling pathway (AID 743065); also: nearly all actives have a fitted effect of over 55% in size; also: potency is read from the fitted curve at half-maximal effect
Method in brief: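 GH3.TRE-Luc rat pituitary cells (two TREs driving luciferase) were dosed with compound, then stimulated with 1 nM T3 (final) for 23.5 h at 37 C. ONE-Glo luminescence was the read-out, with CellTiter-Fluor fluorescence as the cytotoxicity counter-screen.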

[9] = biological target: Estrogen receptor (Homo sapiens) (UniProt P03372); assay: qHTS assay to identify small molecule agonists of the estrogen receptor alpha (ER-alpha) signaling pathway using the BG1 cell line (AID 743079); settings: BG1Luc4E2 cells, ERE-luciferase agonist, 22 h; activation: at 70.3 µM (top of the series) unless noted; also: nearly all actives have a fitted effect of over 20% in size; also: potency is read from the fitted curve at half-maximal effect
[10] = qHTS assay to identify small molecule antagonists of the estrogen receptor alpha (ER-alpha) signaling pathway using the BG1 cell line (AID 743080; calls by dose curve;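 also: BG1 cells stimulated with 17beta-estradiol alongside compound; nearly all actives have a fitted effect of over 25% in size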; also: potency is read from the fitted curve at half-maximal effect); settings: BG1Luc4E2 ERE-luciferase antagonist mode, luminescence; activity change, negative = inhibition: at 70.3 µM (top of the series) unless noted
Method in brief: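 BG1Luc4E2, endogenous ER-alpha, 4xERE-luc; 5 d charcoal-stripped FBS, phenol red free; 24 h plating; cpd + 17beta-estradiol 21.5 h, 37 C/5% CO2; CellTiter-Fluor viability 30 min, then ONE-Glo luciferase 30 min RT.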

[11] = qHTS assay to identify small molecule antagonists of the estrogen receptor alpha (ER-alpha) signaling pathway using the BG1 cell line - cell viability counter screen (AID 743081); settings: BG1Luc4E2 viability, CellTiter-Fluor, 22 h; activity change, negative = cytotoxicity: at 70.3 µM (top of the series) unless noted;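 also: compound given together with 17beta-estradiol as the ER stimulus; nearly all actives have a fitted effect of over 45% in size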; also: potency is read from the fitted curve at half-maximal effect
[12] = qHTS assay to identify aromatase inhibitors - cell viability counter screen (AID 743084); settings: MCF-7 aro ERE viability, CellTiter-Fluor, 24 h; activity change, negative = cytotoxicity: at 70.3 µM (top of the series) unless noted;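 also: cells stimulated with testosterone during compound exposure; nearly all actives have a fitted effect of over 55% in size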; also: potency is read from the fitted curve at half-maximal effect
[13] = biological target: Aryl hydrocarbon receptor (Homo sapiens) (UniProt P35869); assay: qHTS assay to identify small molecule that activate the aryl hydrocarbon receptor (AhR) signaling pathway (AID 743085); also: potency is read from the fitted curve at half-maximal effect; nearly all actives have a fitted effect of over 15% in size
Method in brief: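 HepG2 cells stably carrying a 20-DRE firefly luciferase reporter (HG2L7.5c1) treated with compound for 24 hr at 37C. Luciferase read by ONE-Glo luminescence, with CellTiter-Fluor viability read first.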

[14] = qHTS assay to identify small molecule that activate the aryl hydrocarbon receptor (AhR) signaling pathway - cell viability counter screen (AID 743086); also: potency is read from the fitted curve at half-maximal effect; nearly all actives have a fitted effect of over 45% in size
Method in brief: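 HepG2-AhR-luc (HG2L7.5c1) cells, 4000/well, treated 24 h at 37 C with compound; viability measured as CellTiter-Fluor fluorescence after 30 min in the same wells as the luciferase read.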

[15] = biological target: Peroxisome proliferator-activated receptor gamma (Homo sapiens) (UniProt P37231); assay: qHTS assay to identify small molecule agonists of the peroxisome proliferator-activated receptor gamma (PPARg) signaling pathway (AID 743094; active = well fitted activation curve with a large enough effect in the signal ratio in the repeat runs, not every such curve was filed as active; inconclusive = weak or mixed curves, or effect the other way; inactive = no such curve, though single readings can be large or run the other way; the % refers to the signal ratio; also: potency is read from the fitted curve at half-maximal effect); settings: HEK293H PPARg-UAS-bla, beta-lactamase FRET ratio, 17 h; activation: at 57 µM (top of the series) unless noted
Method in brief: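 Quantitative HTS agonist mode: stable HEK293H line with UAS-beta-lactamase reporter under PPARg control, 17 h compound exposure at 37C, fluorescence after 1 h FRET substrate loading at room temperature.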

[16] = qHTS assay for small molecule agonists of the p53 signaling pathway (AID 651631; calls by dose curve; also: nearly all actives have a fitted effect of over 15% in size; also: potency is read from the fitted curve at half-maximal effect); settings: HCT-116 p53RE-bla reporter, beta-lactamase FRET ratio, 16 h; activation: at 73.3 µM (top of the series) unless noted
Method in brief: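 HCT-116 cells carrying a beta-lactamase reporter under p53 response elements were dosed with compound for 16 h at 37 °C. LiveBLAzer B/G FRET substrate was then added for 2 h at room temperature, and fluorescence intensity was read to detect pathway agonism.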

[17] = biological target: Androgen receptor (Homo sapiens) (UniProt P10275); assay: qHTS assay to identify small molecule antagonists of the androgen receptor (AR) signaling pathway (AID 743035; active = well fitted inhibition curve with a large enough effect in the signal ratio in the repeat runs, not every such curve was filed as active; inconclusive = weak or mixed curves, or effect the other way; inactive = no such curve, though single readings can be large or run the other way; the % refers to the signal ratio); settings: HEK293 AR-UAS-bla, R1881-stimulated, beta-lactamase FRET, 16 h; activity change, negative = inhibition: at 58.5 µM (top of the series) unless noted
Method in brief: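 Antagonism is scored as loss of R1881-driven beta-lactamase reporter expression in HEK293 cells carrying the reporter under a UAS element, after 16 h co-treatment at 37C and a 2 h room-temperature FRET substrate read.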

[18] = qHTS assay to identify small molecule antagonists of the thyroid receptor (TR) signaling pathway - cell viability counter screen (AID 743064); settings: GH3.TRE-Luc viability, CellTiter-Fluor, 24 h; activity change, negative = cytotoxic: at 70.3 µM (top of the series) unless noted; also: potency is read from the fitted curve at half-maximal effect; nearly all actives have a fitted effect of over 50% in size
Method in brief: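 GH3.TRE-Luc rat pituitary cells dosed after 4 hr plating, co-stimulated with T3 at 1 nM final, incubated 23.5 h at 37 C. Viability measured in the same wells by CellTiter-Fluor fluorescence after 30 min further at 37 C.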

[19] = qHTS assay for small molecules that induce genotoxicity in human embryonic kidney cells expressing luciferase-tagged ATAD5 (AID 651632); also: potency is read from the fitted curve at half-maximal effect; nearly all actives have a fitted effect of over 15% in size
Method in brief: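 Increased luciferase signal from ATAD5-tagged reporter cells indicates DNA-damage-driven ATAD5 induction. HEK293T cells are treated for 16 hr at 37C before detection with Amplite.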

[20] = qHTS assay for identifying genotoxic compounds that show differential cytotoxicity against isogenic chicken DT40 cell lines with known DNA damage response pathways - Rad54/Ku70 mutant cell line (AID 743015); settings: DT40 Rad54/Ku70 mutant viability, CellTiter-Glo, 40 h; activity change, negative = cytotoxicity: at 66.8 µM (top of the series) unless noted; also: nearly all actives have a fitted effect of over 60% in size; also: potency is read from the fitted curve at half-maximal effect
[21] = biological target: Estrogen receptor (Homo sapiens) (UniProt P03372); assay: qHTS assay to identify small molecule antagonists of the estrogen receptor alpha (ER-alpha) signaling pathway (AID 743069; active = well fitted curve in the direction sought with a large enough effect in the signal ratio in the repeat runs, not every such curve was filed as active; inconclusive = weak or mixed curves, or effect the other way; inactive = no such curve, though single readings can be large or run the other way; the % refers to the signal ratio; also: potency is read from the fitted curve at half-maximal effect); settings: HEK293 ER-alpha-UAS-bla, beta-lactamase ratio, antagonist mode; activity, negative = inhibition: at 69.4 µM (top of the series) unless noted
Method in brief: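 Reporter cells (ER-alpha-bla, HEK293 background) are conditioned overnight in stripped-serum medium (2% charcoal-stripped FBS). Compound and 17beta-estradiol exposure runs 18 hr at 37C, 5% CO2.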

[22] = biological target: Estrogen receptor (Homo sapiens) (UniProt P03372); assay: qHTS assay to identify small molecule agonists of the estrogen receptor alpha (ER-alpha) signaling pathway (AID 743075; calls by dose curve;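 also: HEK293 GripTite cells with ER-alpha and UAS-driven beta-lactamase reporter; potency is read from the fitted curve at half-maximal effect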); settings: HEK293 ER-alpha-UAS-bla, beta-lactamase FRET ratio, 18 h; activation: at 70.1 µM (top of the series)
Aromatase (Homo sapiens) = Aromatase (Homo sapiens) (UniProt P11511); assay: qHTS assay to identify aromatase inhibitors (AID 743083); also: potency is read from the fitted curve at half-maximal effect; nearly all actives have a fitted effect of over 55% in size
[23] = biological target: Glucocorticoid receptor (Homo sapiens) (UniProt P04150); assay: qHTS assay to identify small molecule agonists of the glucocorticoid receptor (GR) signaling pathway (AID 720691; active = well fitted activation curve with a large enough effect in the signal ratio in the repeat runs, not every such curve was filed as active; inconclusive = weak or mixed curves, or effect the other way; inactive = no such curve, though single readings can be large or run the other way; the % refers to the signal ratio; also: potency is read from the fitted curve at half-maximal effect); settings: GR-bla HeLa, beta-lactamase reporter ratio, 18 h; activation: at 62.4 µM (top of the series) unless noted
Method in brief: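 Agonist mode in a HeLa line carrying a GRE-controlled beta-lactamase reporter. Compounds act for 18 h at 37 C before a 2 h room-temperature FRET substrate step and fluorescence reading.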

[24] = qHTS assay to identify small molecule antagonists of the estrogen receptor alpha (ER-alpha) signaling pathway - cell viability counter screen (AID 743074; calls by dose curve;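 also: HEK293 cells carrying ER-alpha-UAS-bla reporter stimulated with 17beta-estradiol; nearly all actives have a fitted effect of over 45% in size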; also: potency is read from the fitted curve at half-maximal effect)
[25] = qHTS assay for identifying genotoxic compounds that show differential cytotoxicity against isogenic chicken DT40 cell lines with known DNA damage response pathways - Rev3 mutant cell line (AID 743014); settings: chicken DT40 Rev3-/- viability, CellTiter-Glo, 40 h; activity, negative = cytotoxicity: at 68.4 µM (top of the series) unless noted; also: nearly all actives have a fitted effect of over 55% in size
Tags tell the direction and shape of the fitted curve or compound fluorescence and quenching.

Sequence of UniProt P37231 (P37231 whole entry, looked up): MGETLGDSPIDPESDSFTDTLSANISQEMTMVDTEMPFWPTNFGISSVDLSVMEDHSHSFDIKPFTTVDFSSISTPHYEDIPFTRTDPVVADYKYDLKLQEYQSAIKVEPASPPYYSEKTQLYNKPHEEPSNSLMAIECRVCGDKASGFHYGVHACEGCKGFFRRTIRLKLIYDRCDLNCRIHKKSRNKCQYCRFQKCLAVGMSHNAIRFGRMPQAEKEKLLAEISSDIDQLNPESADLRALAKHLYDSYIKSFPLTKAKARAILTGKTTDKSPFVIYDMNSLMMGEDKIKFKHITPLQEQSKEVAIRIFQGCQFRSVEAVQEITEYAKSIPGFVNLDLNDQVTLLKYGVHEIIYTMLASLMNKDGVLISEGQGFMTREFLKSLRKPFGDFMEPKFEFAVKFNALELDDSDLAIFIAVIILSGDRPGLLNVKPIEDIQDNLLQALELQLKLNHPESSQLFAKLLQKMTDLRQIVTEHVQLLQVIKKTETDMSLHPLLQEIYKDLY
Sequence of UniProt P03372 (P03372 whole entry, looked up): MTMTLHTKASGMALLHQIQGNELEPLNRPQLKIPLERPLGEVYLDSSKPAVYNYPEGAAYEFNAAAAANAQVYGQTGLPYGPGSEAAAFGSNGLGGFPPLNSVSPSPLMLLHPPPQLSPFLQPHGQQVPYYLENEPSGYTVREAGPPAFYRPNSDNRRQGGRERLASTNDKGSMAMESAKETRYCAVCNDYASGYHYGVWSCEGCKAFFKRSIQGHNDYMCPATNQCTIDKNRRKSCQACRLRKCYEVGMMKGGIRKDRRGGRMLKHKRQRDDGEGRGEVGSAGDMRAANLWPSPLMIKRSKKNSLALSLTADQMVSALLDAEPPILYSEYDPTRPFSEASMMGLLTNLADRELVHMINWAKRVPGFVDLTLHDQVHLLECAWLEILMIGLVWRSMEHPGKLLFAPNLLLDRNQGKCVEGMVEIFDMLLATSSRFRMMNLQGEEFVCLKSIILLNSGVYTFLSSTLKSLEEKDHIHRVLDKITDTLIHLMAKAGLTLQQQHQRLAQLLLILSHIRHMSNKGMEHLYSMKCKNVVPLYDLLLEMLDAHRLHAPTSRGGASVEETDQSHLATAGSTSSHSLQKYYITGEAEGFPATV
Sequence of UniProt P04150 (P04150 whole entry, looked up): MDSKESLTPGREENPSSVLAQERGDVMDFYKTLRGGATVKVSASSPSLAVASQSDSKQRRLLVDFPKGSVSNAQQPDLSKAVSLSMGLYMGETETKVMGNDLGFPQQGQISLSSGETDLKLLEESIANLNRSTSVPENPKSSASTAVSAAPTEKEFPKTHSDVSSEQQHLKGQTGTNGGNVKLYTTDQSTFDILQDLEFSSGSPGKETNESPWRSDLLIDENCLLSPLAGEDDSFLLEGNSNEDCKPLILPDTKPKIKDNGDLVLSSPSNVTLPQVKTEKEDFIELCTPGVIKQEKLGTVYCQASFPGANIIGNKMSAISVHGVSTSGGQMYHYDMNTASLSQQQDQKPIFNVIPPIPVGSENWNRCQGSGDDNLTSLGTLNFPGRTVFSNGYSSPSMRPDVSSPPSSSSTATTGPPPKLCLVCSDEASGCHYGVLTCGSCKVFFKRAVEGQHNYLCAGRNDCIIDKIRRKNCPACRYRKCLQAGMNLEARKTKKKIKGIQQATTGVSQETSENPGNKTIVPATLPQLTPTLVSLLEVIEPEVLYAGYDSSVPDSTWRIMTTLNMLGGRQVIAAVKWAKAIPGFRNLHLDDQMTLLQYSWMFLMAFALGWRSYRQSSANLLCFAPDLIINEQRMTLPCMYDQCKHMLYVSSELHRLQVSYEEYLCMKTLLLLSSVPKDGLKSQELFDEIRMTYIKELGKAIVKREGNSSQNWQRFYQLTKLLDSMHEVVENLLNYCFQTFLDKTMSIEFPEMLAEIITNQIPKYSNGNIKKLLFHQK
Sequence of UniProt P10275 (P10275 whole entry, looked up): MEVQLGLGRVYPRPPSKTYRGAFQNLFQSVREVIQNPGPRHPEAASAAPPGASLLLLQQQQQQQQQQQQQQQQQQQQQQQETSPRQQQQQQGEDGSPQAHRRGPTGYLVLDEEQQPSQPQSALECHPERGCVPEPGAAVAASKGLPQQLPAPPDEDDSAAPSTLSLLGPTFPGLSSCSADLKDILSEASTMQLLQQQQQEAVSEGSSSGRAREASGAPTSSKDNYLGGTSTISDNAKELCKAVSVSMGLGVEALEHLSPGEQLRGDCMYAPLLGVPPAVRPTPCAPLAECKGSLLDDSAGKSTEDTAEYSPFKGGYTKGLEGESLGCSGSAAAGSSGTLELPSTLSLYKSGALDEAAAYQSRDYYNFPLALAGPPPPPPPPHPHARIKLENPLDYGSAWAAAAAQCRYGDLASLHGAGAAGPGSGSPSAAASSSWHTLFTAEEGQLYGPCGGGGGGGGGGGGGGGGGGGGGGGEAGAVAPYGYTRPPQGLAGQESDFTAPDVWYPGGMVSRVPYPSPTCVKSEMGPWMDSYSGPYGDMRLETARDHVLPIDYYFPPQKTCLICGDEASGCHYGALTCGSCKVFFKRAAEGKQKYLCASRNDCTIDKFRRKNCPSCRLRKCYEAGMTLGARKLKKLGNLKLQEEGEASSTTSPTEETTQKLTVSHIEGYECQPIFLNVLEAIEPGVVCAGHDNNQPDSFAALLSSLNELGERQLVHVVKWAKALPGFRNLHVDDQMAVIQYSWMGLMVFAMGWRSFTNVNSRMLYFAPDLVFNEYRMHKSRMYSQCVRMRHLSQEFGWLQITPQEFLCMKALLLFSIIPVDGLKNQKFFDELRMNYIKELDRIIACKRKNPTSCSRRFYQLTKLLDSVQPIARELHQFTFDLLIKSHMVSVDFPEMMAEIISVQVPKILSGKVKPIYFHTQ
Sequence of UniProt P35869 (P35869 whole entry, looked up): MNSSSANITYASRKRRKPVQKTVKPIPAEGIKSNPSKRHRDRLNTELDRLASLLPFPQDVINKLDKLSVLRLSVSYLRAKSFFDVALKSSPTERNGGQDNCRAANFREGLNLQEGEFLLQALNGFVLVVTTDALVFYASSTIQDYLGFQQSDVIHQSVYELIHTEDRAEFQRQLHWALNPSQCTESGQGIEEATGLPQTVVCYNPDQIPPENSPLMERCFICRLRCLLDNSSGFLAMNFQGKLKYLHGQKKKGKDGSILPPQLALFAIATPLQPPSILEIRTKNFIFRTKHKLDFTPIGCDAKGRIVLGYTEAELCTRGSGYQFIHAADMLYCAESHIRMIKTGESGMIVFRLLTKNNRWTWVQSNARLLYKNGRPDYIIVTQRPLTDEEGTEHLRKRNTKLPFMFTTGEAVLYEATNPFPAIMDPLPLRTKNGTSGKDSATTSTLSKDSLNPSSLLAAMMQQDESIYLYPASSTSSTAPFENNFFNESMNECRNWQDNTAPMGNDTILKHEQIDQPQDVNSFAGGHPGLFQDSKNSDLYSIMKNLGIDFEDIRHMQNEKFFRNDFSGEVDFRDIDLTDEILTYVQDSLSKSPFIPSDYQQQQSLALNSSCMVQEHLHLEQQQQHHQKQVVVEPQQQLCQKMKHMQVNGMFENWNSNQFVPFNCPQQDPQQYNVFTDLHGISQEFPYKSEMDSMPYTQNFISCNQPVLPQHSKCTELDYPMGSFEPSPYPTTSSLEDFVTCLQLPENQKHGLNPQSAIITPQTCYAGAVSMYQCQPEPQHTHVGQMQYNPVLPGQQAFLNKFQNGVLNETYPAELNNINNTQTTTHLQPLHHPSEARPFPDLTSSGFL
Sequence of UniProt P11511 (P11511 whole entry, looked up): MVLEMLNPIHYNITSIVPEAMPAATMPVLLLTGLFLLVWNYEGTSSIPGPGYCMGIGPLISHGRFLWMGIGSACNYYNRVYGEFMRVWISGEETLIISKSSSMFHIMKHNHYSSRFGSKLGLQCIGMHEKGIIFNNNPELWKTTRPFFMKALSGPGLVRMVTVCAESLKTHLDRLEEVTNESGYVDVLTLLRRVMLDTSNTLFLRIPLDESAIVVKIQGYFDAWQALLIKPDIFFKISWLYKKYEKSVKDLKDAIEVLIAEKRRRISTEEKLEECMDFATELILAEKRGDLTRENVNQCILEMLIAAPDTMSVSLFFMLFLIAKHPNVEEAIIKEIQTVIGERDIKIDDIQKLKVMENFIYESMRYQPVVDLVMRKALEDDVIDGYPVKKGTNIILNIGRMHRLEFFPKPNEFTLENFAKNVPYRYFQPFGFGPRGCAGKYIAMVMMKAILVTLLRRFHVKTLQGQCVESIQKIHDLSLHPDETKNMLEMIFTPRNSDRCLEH

O=S(=O)(O)c1cc(O)c2c(N=Nc3ccc(Nc4ccccc4)c4c(S(=O)(=O)O)cccc34)cc(S(=O)(=O)O)cc2c1
Potency [1]: inconclusive [cytotoxic, partial curve, poor fit]
Potency [2]: inconclusive
Potency [3]: inconclusive [falling, partial curve, poor fit]
Potency [4]: inactive
Potency [5]: inconclusive [cytotoxic, partial curve]
Potency [6]: inconclusive [cytotoxic, partial curve]
Potency [7]: active: 16.8 µM
Potency [8]: active: 23.7 µM
Potency [9]: inconclusive [inhibitor, partial curve]
Potency [10]: inconclusive [falling, partial curve]
Potency [11]: active: 15 µM
Potency [12]: active: 16.8 µM
Potency [13]: inconclusive [activator, partial curve, poor fit]
Potency [14]: active: 11.9 µM
Potency [15]: inactive

CCCCCCCCCCCCCCCCCC(=O)OC[C@@H](O)[C@H]1OC[C@H](O)[C@H]1O
Potency [16]: inconclusive [falling, partial curve, poor fit]
Potency [17]: inactive
Potency [6]: inactive

C/C(=C(\CCOC(=O)c1ccccc1)SS/C(CCOC(=O)c1ccccc1)=C(/C)N(C=O)Cc1cnc(C)nc1N)N(C=O)Cc1cnc(C)nc1N
Potency [16]: inconclusive [rising, full curve, poor fit]
Potency [18]: inconclusive [cytotoxic, single point]
Potency [8]: active: 23.7 µM
activation [9]: inconclusive: 14.8% [phenotype inactive]
Potency [10]: inactive
Potency [11]: inactive

Cc1ccccc1CNc1ncnc2c1ncn2[C@@H]1O[C@H](CO)[C@@H](O)[C@H]1O
Potency [19]: inconclusive [activator, full curve, poor fit]
activity change, negative = inhibition [4]: inconclusive: 22.5%
Potency [5]: active: 16.8 µM
Potency [20]: inconclusive [cytotoxic]
Potency [21]: inconclusive [activator, full curve]
Potency [22]: inconclusive [activator, full curve, poor fit]
Potency [9]: inactive
Potency (Aromatase (Homo sapiens)): inconclusive [inhibitor, partial curve, poor fit]
Potency [15]: inconclusive [rising, partial curve, poor fit]

OCCO[C@@H]1[C@@H](O)[C@H](O)[C@@H](CO)O[C@@H]1O
Potency [19]: inconclusive [activator, partial curve, poor fit]
Potency [1]: inactive
Potency [3]: inactive
Potency [23]: active: 13.4 µM [inconclusive]
Potency [4]: inconclusive [activator, partial curve]
Potency [6]: inactive
activity, negative = inhibition [21]: inconclusive: 24.5%
Potency [10]: inconclusive [rising, partial curve]

CC(=O)OC[C@H]1O[C@@H](O[C@H]2[C@H](O)[C@@H](OC(=O)c3ccccc3C(=O)O)[C@H](O)O[C@@H]2COC(C)=O)[C@H](O)[C@@H](OC(=O)c2ccccc2C(=O)O)[C@@H]1O
Potency [16]: inactive
Potency [24]: inconclusive [rising, full curve, poor fit]
Potency [9]: inactive
Potency [11]: inactive
Potency [15]: inactive

O=C(O)[C@@H]1C[C@H](CP(=O)(O)O)CCN1
Potency [16]: inactive
Potency [25]: inactive
Potency [18]: inconclusive [rising, single point]
Potency [12]: inactive

c1cnc2cc3c(cc2n1)[C@@H]1CNC[C@H]3C1
Potency [16]: inactive
Potency [20]: inactive
Potency [18]: inconclusive [rising, single point]
Potency [8]: inactive
Potency [9]: inactive

NC(N)=NCC1COc2ccccc2O1 (centres undefined)
Potency [16]: inconclusive [falling, full curve, poor fit]
Potency [24]: inactive
Potency [11]: inconclusive [cytotoxic, partial curve, poor fit]
Potency [13]: inconclusive [activator, partial curve, poor fit]
